N[C@@H](Cc1ccc(O)cc1)C(=O)O
solubility (mole fraction)
Conditions | 283.15 K | 288.15 K | 293.15 K | 298.15 K | 303.15 K | 308.15 K | 313.15 K | 318.15 K | 323.15 K | 328.15 K
in DMF | 0.000477 | 0.000486 | 0.000522 | 0.000528 | 0.000619 | 0.000645 | 0.000665 | 0.000745 | 0.000767 | 0.000855
in acetonitrile | 2.98e-06 | 3.4e-06 | 4.52e-06 | 6.13e-06 | 7.71e-06 | 1.08e-05 | 1.41e-05 | 1.68e-05 | 2.26e-05 | 2.88e-05
in ethyl acetate | 0.00206 | 0.00239 | 0.00258 | 0.00285 | 0.0034 | 0.00357 | 0.00394 | 0.00473 | 0.005 | 0.00557
in ethylene glycol | 3.1e-05 | 3.61e-05 | 4.87e-05 | 6.24e-05 | 9.14e-05 | 0.000113 | 0.00014 | 0.000194 | 0.000239 | 0.000325
in isopropanol | 5.54e-06 | 6.1e-06 | 8.97e-06 | 1.05e-05 | 1.24e-05 | 1.69e-05 | 1.96e-05 | 2.24e-05 | 2.93e-05 | 3.55e-05
in n-butanol | 9.95e-07 | 1.55e-06 | 1.7e-06 | 2.09e-06 | 2.87e-06 | 3.19e-06 | 4.32e-06 | 5.18e-06 | 6.55e-06 | 8.19e-06

Reference: BigSolDB 2.1
